The full ranking holds about 33,000 sequences; the median of “E-score (-0.5 to 0.5)” is about -0.036, and the highest 2% start at about 0.37. This is one part of the list.
The sequences below were run against T1, Yer064c (UniProt P40041) (assay: PBM E-score (8-mer binding enrichment) (E-score (-0.5 to 0.5)); higher = stronger / more preferred TF binding; most listed sequences are background and not binding sites). Conditions: protein concentration: 200 nM; construct: GST-full length.
T1 sequence: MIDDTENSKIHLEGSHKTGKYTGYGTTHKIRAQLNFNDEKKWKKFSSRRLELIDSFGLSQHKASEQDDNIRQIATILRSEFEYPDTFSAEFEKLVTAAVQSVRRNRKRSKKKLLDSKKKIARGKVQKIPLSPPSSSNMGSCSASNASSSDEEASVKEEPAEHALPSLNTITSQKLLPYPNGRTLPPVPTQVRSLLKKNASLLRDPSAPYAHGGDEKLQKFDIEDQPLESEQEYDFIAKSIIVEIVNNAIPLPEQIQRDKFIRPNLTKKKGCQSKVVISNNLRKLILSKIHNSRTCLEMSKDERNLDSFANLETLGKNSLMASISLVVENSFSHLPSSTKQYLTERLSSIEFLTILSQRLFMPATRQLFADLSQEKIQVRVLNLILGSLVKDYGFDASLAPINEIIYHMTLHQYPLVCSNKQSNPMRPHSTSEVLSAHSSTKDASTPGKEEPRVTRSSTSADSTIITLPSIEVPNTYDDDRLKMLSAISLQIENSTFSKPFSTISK
How it was run: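 Full-length yeast transcription factors or their DNA-binding domains, GST-tagged and expressed with PURExpress, were applied at about 100-200 nM to universal all-10-mer Agilent arrays. These arrays had been made double-stranded by primer extension on fresh or once-stripped slides. Detection used fluorescent anti-GST, normalisation used masliner, and E-scores for ungapped eight-base words pooled with reverse complements came from the Universal PBM Analysis Suite.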
In the case of AATAATAG, the “PBM E-score” value is reported as -0.0916. CTCGCAAC was tested, and the “PBM E-score” value was 0.0701. GCCTACGC was tested, and the “PBM E-score” value was -0.193. With CAAAAAAG the “PBM E-score” value was 0.0403. ACGTGGTA was tested, and the “PBM E-score” value was -0.183. AAAGTATG was tested, and the “PBM E-score” value was -0.0222. In the case of CCCACGCA, the “PBM E-score” value is reported as -0.0558. In the case of ATTAATCC, the “PBM E-score” value is reported as 0.256. In the case of TCTGCTAA, the “PBM E-score” value is reported as -0.0505. In the case of AGTTAATG, the “PBM E-score” value is reported as 0.16. For ACGTGGTC, the “PBM E-score” value was -0.0273. In the case of CTTGCTAC, the “PBM E-score” value is reported as -0.214. With ACTGGATA the “PBM E-score” value was 0.145. With AACCCCGT the “PBM E-score” value was -0.0415. In the case of ACACTTAA, the “PBM E-score” value is reported as 0.136. In the case of ATGTAGGG, the “PBM E-score” value is reported as -0.295. For AGGAACCC, the “PBM E-score” value was -0.318. With CCTATTTA the “PBM E-score” value was -0.143. In the case of ACCGCACT, the “PBM E-score” value is reported as -0.138. CAACAGGA was tested, and the “PBM E-score” value was -0.146. AATAACAG was tested, and the “PBM E-score” value was 0.0632. For AGTCGAAG, the “PBM E-score” value was 0.232. CTACGGGA was tested, and the “PBM E-score” value was 0.00368. ATACCCGC was tested, and the “PBM E-score” value was 0.0214. ACCTCGCT was tested, and the “PBM E-score” value was -0.00735. With ATGCTCTC the “PBM E-score” value was -0.229. For ACGTGGCG, the “PBM E-score” value was -0.137. With CTTAAGGA the “PBM E-score” value was 0.132. GTTCGAAC was tested, and the “PBM E-score” value was 0.135. For AGGTGCGG, the “PBM E-score” value was -0.17. TATATAGA was tested, and the “PBM E-score” value was 0.0693. For AAGACAGA, the “PBM E-score” value was -0.0516. In the case of AAACATTT, the “PBM E-score” value is reported as -0.0143. GGTGCACA was tested, and the “PBM E-score” value was -0.0555. With ATCGAAAG the “PBM E-score” value was 0.0511. ATTCGCAC was tested, and the “PBM E-score” value was -0.0924. CGTTAGAC was tested, and the “PBM E-score” value was -0.00028. In the case of AGTATGAG, the “PBM E-score” value is reported as 0.208. AGGCCGCG was tested, and the “PBM E-score” value was -0.357. CAAACTCG was tested, and the “PBM E-score” value was 0.0844. In the case of ACCGGAAT, the “PBM E-score” value is reported as -0.0986. In the case of GAACGGAA, the “PBM E-score” value is reported as -0.199. For CAAATGAG, the “PBM E-score” value was 0.114. With GATAGAGA the “PBM E-score” value was -0.117. CGGATGCC was tested, and the “PBM E-score” value was -0.198. AATATTGG was tested, and the “PBM E-score” value was -0.227. AGCCCGTC was tested, and the “PBM E-score” value was -0.285. For AAAACGAA, the “PBM E-score” value was 0.13. For AATGGTTG, the “PBM E-score” value was 0.0168. With ACAGACGT the “PBM E-score” value was -0.226. For GCCACCCC, the “PBM E-score” value was -0.122. For CATTGATA, the “PBM E-score” value was -0.0103. TGAAGTCA was tested, and the “PBM E-score” value was 0.445. In the case of CACATATA, the “PBM E-score” value is reported as 0.0408. In the case of GCCTATTA, the “PBM E-score” value is reported as -0.223. In the case of CACGACAG, the “PBM E-score” value is reported as -0.0297. CCCTGGAC was tested, and the “PBM E-score” value was -0.087. CATGAACA was tested, and the “PBM E-score” value was 0.0394. AATTCTCC was tested, and the “PBM E-score” value was -0.18. With ACCACTAA the “PBM E-score” value was 0.145. In the case of AAGGTGGT, the “PBM E-score” value is reported as -0.153. In the case of ACGACAAT, the “PBM E-score” value is reported as 0.0503. In the case of ATTAGAGA, the “PBM E-score” value is reported as 0.0763. In the case of CGAACAAG, the “PBM E-score” value is reported as -0.0422. For CCAGTCAG, the “PBM E-score” value was 0.248. GCATGATA was tested, and the “PBM E-score” value was 0.116. With AGTGTGTC the “PBM E-score” value was 0.05. For ACACCCGT, the “PBM E-score” value was 0.0279. In the case of GTCCGAAA, the “PBM E-score” value is reported as 0.0279. In the case of GGGCTATA, the “PBM E-score” value is reported as -0.294. CGCAAGGA was tested, and the “PBM E-score” value was -0.167. With CGCGGAGC the “PBM E-score” value was -0.229. With GGTTTGAA the “PBM E-score” value was 0.0654. With CATAGTGC the “PBM E-score” value was -0.00185. For AAGTTAGC, the “PBM E-score” value was 0.0512. In the case of ATATTCCG, the “PBM E-score” value is reported as -0.0741. With TGTGCACA the “PBM E-score” value was -0.0367. In the case of CCGTTAGA, the “PBM E-score” value is reported as 0.00036. GCAGACGA was tested, and the “PBM E-score” value was -0.0411. In the case of ATACGACG, the “PBM E-score” value is reported as -0.0663. In the case of CAACGTAG, the “PBM E-score” value is reported as -0.103. With CTGACCCA the “PBM E-score” value was 0.0335. With CGCTCTTA the “PBM E-score” value was -0.00424. GCGGCACC was tested, and the “PBM E-score” value was -0.357. For GCTGCGAC, the “PBM E-score” value was 0.182. With GCAAGTTA the “PBM E-score” value was 0.0949. With CCCGTTGC the “PBM E-score” value was 0.101. With AACTGTTC the “PBM E-score” value was 0.0605. For GAAATCGC, the “PBM E-score” value was -0.00281. With ACGCGCAG the “PBM E-score” value was -0.155. CCCCCTAG was tested, and the “PBM E-score” value was -0.265. For CAATTCGG, the “PBM E-score” value was -0.189. In the case of CTGGAGAA, the “PBM E-score” value is reported as -0.204. GATACCCC was tested, and the “PBM E-score” value was -0.146. With ACTCATCT the “PBM E-score” value was 0.401. With AATCCAGC the “PBM E-score” value was -0.149. In the case of CCTATGTC, the “PBM E-score” value is reported as -0.165. With CCACACTA the “PBM E-score” value was -0.0276. In the case of AGCCCCAA, the “PBM E-score” value is reported as -0.0623. With TCATGCAA the “PBM E-score” value was 0.177. With CTGAATAC the “PBM E-score” value was -0.0534. With AAGTCGAT the “PBM E-score” value was 0.0107. With CAGAAAAG the “PBM E-score” value was 0.106. In the case of AAATCTCC, the “PBM E-score” value is reported as -0.2. With CAGATAGG the “PBM E-score” value was -0.0964. With AGCGATAC the “PBM E-score” value was -0.106. In the case of AACTCACT, the “PBM E-score” value is reported as 0.148. With TCCCCGCA the “PBM E-score” value was -0.0687. In the case of CGGCTAGC, the “PBM E-score” value is reported as -0.139. In the case of AGTCTTGG, the “PBM E-score” value is reported as 0.315.
